# Measurements taken from article PMC4336329 (PLoS ONE, 2015).
# About 14,000 (4.5%) of roughly 310,000 compounds showed an effect of 50% or more. Effects have a minus sign here. This is one part of the list.
# Target: human ether-à-go-go-related gene (hERG) potassium channel (human, UniProt Q12809)
# Experiment: primary screen, population patch clamp on CHO cells stably expressing hERG
# 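Note: peak tail current of the secondary pulse compared with the same well before compound.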
# Chain of human ether-à-go-go-related gene (hERG) potassium channel (Q12809 whole entry, looked up): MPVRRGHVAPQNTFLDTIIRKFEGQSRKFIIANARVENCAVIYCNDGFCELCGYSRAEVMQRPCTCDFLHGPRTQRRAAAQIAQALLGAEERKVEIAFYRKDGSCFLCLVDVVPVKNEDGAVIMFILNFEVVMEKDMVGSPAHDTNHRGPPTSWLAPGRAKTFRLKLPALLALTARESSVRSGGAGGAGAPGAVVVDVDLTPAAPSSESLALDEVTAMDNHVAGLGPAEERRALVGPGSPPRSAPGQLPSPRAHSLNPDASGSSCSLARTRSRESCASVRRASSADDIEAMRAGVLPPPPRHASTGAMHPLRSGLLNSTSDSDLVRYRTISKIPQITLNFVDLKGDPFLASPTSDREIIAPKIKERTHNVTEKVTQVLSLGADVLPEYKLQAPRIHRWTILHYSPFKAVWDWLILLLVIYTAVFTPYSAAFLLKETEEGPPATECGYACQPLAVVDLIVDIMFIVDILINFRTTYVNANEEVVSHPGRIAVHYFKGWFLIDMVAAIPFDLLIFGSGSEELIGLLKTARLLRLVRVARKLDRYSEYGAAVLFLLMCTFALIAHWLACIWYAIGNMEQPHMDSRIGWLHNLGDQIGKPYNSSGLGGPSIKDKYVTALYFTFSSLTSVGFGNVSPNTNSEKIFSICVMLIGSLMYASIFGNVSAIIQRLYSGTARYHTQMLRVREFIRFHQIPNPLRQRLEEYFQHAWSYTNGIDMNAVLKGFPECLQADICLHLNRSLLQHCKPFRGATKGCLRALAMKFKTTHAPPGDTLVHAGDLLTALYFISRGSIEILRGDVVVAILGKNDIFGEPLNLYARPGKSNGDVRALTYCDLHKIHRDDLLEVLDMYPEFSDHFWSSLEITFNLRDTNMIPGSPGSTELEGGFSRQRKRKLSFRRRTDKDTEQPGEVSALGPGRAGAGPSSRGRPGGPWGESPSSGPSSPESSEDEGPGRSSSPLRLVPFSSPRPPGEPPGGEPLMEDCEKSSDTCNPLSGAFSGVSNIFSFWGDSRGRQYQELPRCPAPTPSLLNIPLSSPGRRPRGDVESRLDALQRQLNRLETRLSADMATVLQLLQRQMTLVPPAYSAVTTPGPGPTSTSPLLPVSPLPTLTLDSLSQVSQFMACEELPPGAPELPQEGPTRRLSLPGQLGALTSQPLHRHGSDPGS
row,Structure (SMILES),"hERG current change (%, negative = inhibition) at 10uM [%]"
1,CCOC(=O)c1c(C)[nH]c(C(=O)COC(=O)CCSc2ccccc2)c1C,29.9
2,CCCN(CCC)C1Cc2cc(OC)c(OC)cc2C1.O=C(O)/C=C\C(=O)O,-33.4
3,COc1ccc(-n2cnnc2SCC(=O)NC2CCS(=O)(=O)C2)cc1 (centres unmarked),8.52
4,Cc1cccc(CC(=O)NCCS(=O)(=O)N2CCN(c3cccc(Cl)c3)CC2)c1,-20.2
5,Cn1cccc1C(C(=O)NC1CCCCC1)N(C(=O)Cc1cccs1)C1CC1 (centres unmarked),8.24
6,CCOC(=O)c1csc(NC(=O)c2ccc3c(c2)OCCO3)n1,9.85
7,CC(=O)c1cccc(Nc2cc(C)nc3c(C)cc(C)cc23)c1.Cl,-56.1
8,COc1ccc(C(CC(=O)N2CCN(c3ccccc3)CC2)c2c(OC)cc(OC)c3ccc(=O)oc23)cc1 (centres unmarked),1.88
9,O=C(NC1CCCCC1)C(c1ccncc1)N(C(=O)c1ccco1)c1ccc(F)cc1 (centres unmarked),-15
10,O=C(NCc1ccccc1)C(=O)Nc1cccc(C(=O)O)c1,4.16
11,COc1nc(NC(C)(C)C)nc(Oc2ccc(=O)n(C)n2)n1,16.8
12,Cc1cccc(Cn2c(Cc3ccccc3)nc3ccccc32)c1,-24.6
13,COc1ccc(CN2CCn3ncc(C(=O)Nc4cccc(C)c4)c3C2=O)cc1,6.5
14,CCOc1ccc(C(=O)CCC(=O)NC(CC(C)C)C(=O)OC)cc1 (centres unmarked),-2.17
15,CCc1ccccc1-n1ncc(C(=O)Nc2ccccc2OC)c1C,3.49
16,O=C(CSc1nc2ccsc2c(=O)n1CC1CCC(C(=O)O)CC1)c1ccc(F)cc1 (centres unmarked),15.5
17,Cc1ccc(-c2cc(C(=O)N3CCCC3)no2)cc1,0.529
18,CC(=O)C1=C(C)Nc2ncnn2C1c1ccc(C)cc1 (centres unmarked),10.5
19,O=C(CSc1nc2ccccc2s1)NNC(=S)Nc1ccc(Cl)cc1,6.79
20,CN=C1S/C(=C\c2cccn2-c2cccc(Br)c2)C(=O)N1C,5.78
21,Cc1cccc(N(CC(=O)NC2CCCCC2)C(=O)CCCC(=O)Nc2ccccn2)c1,2.93
22,CC1CCCC(C)N1C(=O)C1CCCCC1 (centres unmarked),5.23

row,Structure (SMILES),"hERG current change (%, negative = inhibition) at 10uM [%]"
1,CCN(CC)S(=O)(=O)c1ccc2c(c1)oc(=O)n2CC(=O)N(C)C1CCCCC1,-11.9
2,O=C(CSc1nccn1Cc1ccco1)Nc1cccc(F)c1,-1.57
3,C[C@@H](NC(=O)C1(c2ccccc2)CCN(C(=O)OC(C)(C)C)CC1)C(=O)N[C@@H](Cc1ccccc1)C(=O)O,-2.07
4,CNC(=O)Cn1ncc2c3ccccc3n(C)c2c1=O,12.4
5,c1ccc(N2CCN(Cc3cnc(N4CCOCC4)s3)CC2)cc1,29.4
6,COc1cc(C(=O)Nc2nnc(C)s2)cc(OC)c1OC,-0.457
7,COc1ccc(/C=C2\C(=O)NC(=O)N(CCC3=CCCCC3)C2=O)c(OC)c1,24.6
8,O=C(Nc1cc(C(=O)N2CCOCC2)ccc1N1CCCC1)c1cccs1,-75.9
9,CCN1CCN(CCNC(=O)Nc2ccc([N+](=O)[O-])cc2)CC1,-12.2
10,c1ccc(CSc2ccc(-c3cccs3)nn2)cc1,15.5
11,O=C(NCc1nnc(SCC(=O)N2CCCCCC2)o1)c1ccccc1F,6.82
12,CCOC(=O)c1[nH]c2ccc(OC)cc2c1NC(=O)OC,7.46
13,O=C(COC(=O)c1ccc(S(=O)(=O)NCc2ccco2)cc1)NC1CCCCC1,-1.72
14,COc1ccc(NS(=O)(=O)c2cccc(C(=O)NNC(=O)c3cccn3C)c2)cc1,8.16
15,Cc1ccc(-n2c(N)cc(=O)nc2SCC(=O)N2CCN(c3ccccc3)CC2)cc1,-0.877
16,CCCN(CCC)CCNC(=O)C1CCN(S(=O)(=O)c2cccc3nsnc23)CC1,-13.4
17,O=C(COC(=O)CN1C(=O)c2ccccc2C1=O)NC1CCCCC1,4.62
18,Cc1nnsc1SCCNC(=O)Nc1ccc(Cl)cc1,-1.58
19,CCOCCCNC(=O)Cn1cc2c(n1)CCCC2,4.46
20,COc1cccc(CN2CCN(CC#Cc3ccccc3)CC2CCO)c1 (centres unmarked),-30.6
21,Cc1ccc(Oc2nnc(-c3ccccc3)cc2C#N)cc1,-11.8
22,CC(C)(C)c1nc(SCC(=O)Nc2ccc3c(c2)OCCO3)c2ccccc2n1,-13.7
